According to the RNAGym collection of RNA variant scans (doi:10.1093/nar/gkz1192):
Read counts are not given, so values of variants with three or more changes are uncertain.

B1: CPEB3 Ribozyme (parent)
chain: UAACAGGGGGCCACAGCAGAAGCGUUCACGUCGCAGCCCCUGUCAGAUUCUGGUGAAUCUGCGAAUUCUGCUGUAUAUCUC

Variants of: B1
Test: self-cleavage, relative activity (ratio to wild type); higher = more cleavage; in vitro, sequencing
Method in brief: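 Relative activity compares each variant's cleaved/total read fraction with that of the unmutated ribozyme. To get these fractions, barcoded CPEB3 ribozyme libraries from rounds of error-prone PCR were transcribed with T7 RNA polymerase for 5 hours at 37°C and then given 15 min of DNase I treatment before EDTA was added. The RNAs were reverse transcribed with template switching and sequenced on Illumina, and DNA sequencing linked barcodes to variants. A minimum of 5 reads applied, and three batches were averaged.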
Variant UAACAGGGGGUCACAGCAGAAGCGUUCACGUCGCUGCCUCUGUCAGAUUCUGGUGAAUCUGCGAAUUCUGCCGUAUAUCCC [C11U A35U C39U U72C U80C] has a self-cleavage of 0.17.
UAACAGGGGGUCACAGCUGAAGCGUUCACGUCGCAGCCCCUGUCAGAUUCAGGUGAAUCUGCGAAUUCUGCUGUAUAUCUC [C11U A18U U51A] gave a self-cleavage of 0.17.
UAACAGGGGGUCACAGCAGAGGCGUUCACGUCGCAGCCCCUGUCAGAUUCUGGUGAAUCUGCGUAUUCUGCUGUAUAUCUC [C11U A21G A64U] gave a self-cleavage of 0.22.
Variant UAACAGGGGGUCACGGCAGAAGCGUUCACGUCGCAGCCCCUGUCAGAUUCUGGUGAAUCUGCAAAUUCUGCUGUAUAUCUC [C11U A15G G63A] has a self-cleavage of 0.45.
For UAACAGGGGGGCACAGCAGAAGCGUUCACGUCGCAGCCCCUGUCAGAAUCAGGUGAAUCUGCGAAAUCUGCUGUAUAUCUC [C11G U48A U51A U66A], the self-cleavage was 0.22.
UAACAGGGGGUCACUGCAGAGGCGUUCACGUCGCAGCCCCUGUCGGAUUCUGGUGAAUCUGCGAAUUCCGCUGUAUAUCUC [C11U A15U A21G A45G U69C] showed a self-cleavage of 0.36.
Variant UAACAGGGGGGCACAGCAGAAGCGUUCACGCCGCAGCCCCUGUCAGAUUCUGGAGAAUCUGCGAAUUCUGCUGUAUUUCUC [C11G U31C U54A A77U] has a self-cleavage of 0.18.
In the case of UAACAGGGGGGCACAGCAGAAGCGUUCACGUCGCAGCCCCUGUCAGAUUCCGGUGAAUCUGCGGGUUCUGCUGUAUAUCUC [C11G U51C A64G A65G], the self-cleavage is reported as 0.07.
For UAACAGGGGGGCACAGCAGAAGCGUUCACGUCGCAGCCCCCGUCAGAUUCUGGUGAAUCUGCGAAUUCUGCUGUAUAUCAC [C11G U41C U80A], the self-cleavage was 0.84.
UAACAGGGGGGCACAGCAGAAGCGUUCACGUCGCAGCCCCCGUCAGGUUCUGGUGAAUCUGCGAAUUCUGCUGUAUAUCCC [C11G U41C A47G U80C] showed a self-cleavage of 0.39.
In the case of UAACAGGGGGUCACGGCAGAAGCGCUCACGUCGCAGCCCCUGUCUGAUUCUGGUGAAUCUGCGGAUUCUGCUGUAUAUCUC [C11U A15G U25C A45U A64G], the self-cleavage is reported as 0.21.
In the case of UAACAGGGGGUCACGGCAGAAGCGUUCACGUCGCAGCCCCUAUCAGAUUCUGGUGAAUCUGCGGAUUCUGCUGUAUAUCUC [C11U A15G G42A A64G], the self-cleavage is reported as 0.1.
Variant UAACAGGGGGUCACAGCAGAAGCGUUCGCGUCGCAGCCCCGGUCAGAUUCUGGUGAAUCUGCGGAUUCUGCUGUAUACCUC [C11U A28G U41G A64G U78C] has a self-cleavage of 0.06.
In the case of UAACAGGGGGUCUCAGCAGAAGCGUUCACGUCGCAGCCCCUGUAAGAUUCUGGUGAAUCUGCGAAUUCAGCUGUAUAUCCC [C11U A13U C44A U69A U80C], the self-cleavage is reported as 0.07.
For UAACAGGGGGUCACGGCAGAAGCGCUCACGUCGCCGCCCCUGUCAGAUCCUGGUGAAUCUGCGAAUUCUGCUGUAUAUCUC [C11U A15G U25C A35C U49C], the self-cleavage was 0.21.
With UAACAGGGGGUCACAGCAGAGGCGUUCACGUCGCAGCCCCUGUCAGAUCCUGGUGAAUCUGCGAAUUCUGCUGUAUAUCUC [C11U A21G U49C] the self-cleavage was 0.22.
UAACAGGGGGUCACAGCAGAAGCGUUCACGUCGCGGGCCCUGUCAGAUUCAGGUUAAUCUGCGAAUUCUGCUGUAUAUCUC [C11U A35G C37G U51A G55U] gave a self-cleavage of 0.06.
Variant UAACAGGGGGGCACAGCAGAAGCGUUCACGUCGCAGCCCCAGUCAGAUCCUGGUGAAUCUGCGAAUCCUGCUGUAUAUCCC [C11G U41A U49C U67C U80C] has a self-cleavage of 0.14.
UAACAGGGGGUCACAGCAGGAGCGUUCACGUCGCGGCCCCCGUCAUAUUCAGGUGAAUCAGCGAAUUCUGCUGUAUAUCUC [C11U A20G A35G U41C G46U U51A U60A] showed a self-cleavage of 0.37.
For UAACAGGGGGUCACAGCAGAGGCGUUCACGUCGCAGCCCCUGUCAGAUUCUGGUGAGUCCGCGAAUUCUGCUGUAUAUCUC [C11U A21G A57G U60C], the self-cleavage was 0.14.
Variant UAACAGGGGGUCACAGCAGAGGCGGUCACGUCGCAGCCCCUGUCAGACUCUGGUGAAUCUGCGAAUUCUGCUGUAUAUCUC [C11U A21G U25G U48C] has a self-cleavage of 0.23.
Variant UAACAGGGGGGCACAGCAGAAGCGUUCACGUCGCAGCCCCUGACAGAUUCUGGUGAAUCUGCGAAUUCUGCUGUGUAUCUC [C11G U43A A75G] has a self-cleavage of 0.33.
Variant UAACAGGGGGGCACAGCAGAAGCGUUCACGCCGCAGCCCCUGUCAGAUUCAGGUGUAUCUGCGAAUUCUGCUGUAUAUCUC [C11G U31C U51A A56U] has a self-cleavage of 0.09.
Variant UAACAGGGGGUCACGGCAGAAGCGUUCACGUCGCAGCCCCAGUCAGAUUCUGGUGAAUCUGCGAAGUAUGCUGUAUAUCUC [C11U A15G U41A U66G C68A] has a self-cleavage of 0.07.
Work on UAACAGGGGGUCCCAGCAGAAGCGAUCUCGUCGCAGCCCCUGUCAGAUUCUGGUGAAUCUGCGAAUUCUGCUGCGUAUCUC [C11U A13C U25A A28U U74C A75G] yielded a self-cleavage of 0.05.
With UAACAGGGGGGCACAGCAGAAGCGUUCACGUCGCAGCCCCUGUCAGAUUCUGGUGAAUCUGCGAAUUCCGCAGUAUAUCUC [C11G U69C U72A] the self-cleavage was 0.1.
In the case of UAACAGGGGGUCACAGCAGGAGCGCUCACGUCGCAGCCCCUGUCAGAUUCUGGUGAAUCAGCGAAUUCAGCUGUAUAUCUC [C11U A20G U25C U60A U69A], the self-cleavage is reported as 0.15.
UAACAGGGGGUCACAGCAGAAGCGUUCACGUCGCGGCCCCUGUCAGAUCCUGGUGAAUCUGCGAACUCUGCUGUAUAUCUC [C11U A35G U49C U66C] showed a self-cleavage of 0.09.
With UAACAGGGGGUCUCAGCAGAAGCGAUCACGUCGCAGCCCCUGUCAGAUUCUGGUGAAUCUGCGAAUUCUGCUGUAUAUCUC [C11U A13U U25A] the self-cleavage was 0.31.
Work on UAACAGGGGGUCACAGCAGAAGCGUUCUCGUCGCAGCCCCUGUCAGAUUCUGGUGAAUGUGCGAAUUCUGCUGUAUAUCCC [C11U A28U C59G U80C] yielded a self-cleavage of 0.08.
Variant UAACAGGGGGUCCCAGCAGAAGCGUUCACGUCGCAGCCCCUGUCAGAUUCUGGAGAAUCUGCGAAUUCUGCCGUAUAUCUC [C11U A13C U54A U72C] has a self-cleavage of 0.08.
In the case of UAACAGGGGGUCACAGCGGAGGCGUUCACGUCGCAGCCCCUGUCAGAUUCUGGUGAAUAUGCCAAUUCUGCAGUAUAUCUC [C11U A18G A21G C59A G63C U72A], the self-cleavage is reported as 0.05.
Work on UAACAGGGGGUCACAGCUGAAGCGUUCACGUCGCAGCCCCUGUCAGAUUCUGGUGAAUCCGCGAAUUCUGCUGUAUAUCUC [C11U A18U U60C] yielded a self-cleavage of 0.12.
With UAACAGGGGGUCACAGCAGGAGCGUCCACGUCGCAGCCCCUGUCAGGUUCUGGUGGAUCUGCGGAUUCUGCUGUAGAUCUC [C11U A20G U26C A47G A56G A64G U76G] the self-cleavage was 0.
